Consider three molecules from patent KR20220059888A (dated 2022).

For assay [1], the target named is T1, 개 Tie2 단백질 (개 (dog), UniProt A0A8I3S0B4 27-1128).
T1 construct: whole, on cells; also called 다른 종 유래의 Tie2 단백질
T1 sequence: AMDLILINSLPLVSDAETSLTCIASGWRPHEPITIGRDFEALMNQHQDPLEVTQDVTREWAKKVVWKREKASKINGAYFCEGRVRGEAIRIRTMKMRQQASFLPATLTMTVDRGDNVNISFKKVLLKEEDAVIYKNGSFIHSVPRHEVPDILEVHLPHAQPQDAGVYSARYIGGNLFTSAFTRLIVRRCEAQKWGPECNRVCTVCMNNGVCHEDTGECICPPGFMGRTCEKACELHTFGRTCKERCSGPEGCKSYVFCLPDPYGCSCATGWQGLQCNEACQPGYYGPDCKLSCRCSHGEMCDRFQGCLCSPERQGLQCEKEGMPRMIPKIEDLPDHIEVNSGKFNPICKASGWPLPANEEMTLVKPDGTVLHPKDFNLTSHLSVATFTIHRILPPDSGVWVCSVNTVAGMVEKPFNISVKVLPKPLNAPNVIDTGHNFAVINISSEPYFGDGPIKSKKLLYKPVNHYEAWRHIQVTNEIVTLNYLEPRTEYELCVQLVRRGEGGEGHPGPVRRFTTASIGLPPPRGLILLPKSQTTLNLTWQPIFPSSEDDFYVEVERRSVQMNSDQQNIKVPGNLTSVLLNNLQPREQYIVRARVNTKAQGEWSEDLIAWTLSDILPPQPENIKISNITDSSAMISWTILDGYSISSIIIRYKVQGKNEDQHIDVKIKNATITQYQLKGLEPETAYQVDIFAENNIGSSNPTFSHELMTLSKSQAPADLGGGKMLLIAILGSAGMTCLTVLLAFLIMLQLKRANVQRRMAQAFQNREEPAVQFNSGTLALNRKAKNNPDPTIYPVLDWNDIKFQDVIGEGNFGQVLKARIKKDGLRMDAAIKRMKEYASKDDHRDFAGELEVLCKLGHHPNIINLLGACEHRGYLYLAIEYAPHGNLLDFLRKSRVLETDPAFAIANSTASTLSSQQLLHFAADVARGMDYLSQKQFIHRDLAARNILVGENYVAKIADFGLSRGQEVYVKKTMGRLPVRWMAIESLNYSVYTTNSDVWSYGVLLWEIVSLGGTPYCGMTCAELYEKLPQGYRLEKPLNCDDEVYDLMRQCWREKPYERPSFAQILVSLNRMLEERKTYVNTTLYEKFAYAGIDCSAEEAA
Briefly: flow cytometry; HEK293T cells transfected with dog Tie2.

In assay [2] the target is T2, 랫 Tie2 단백질 (랫 (rat), UniProt A0ABK0L6J5 19-1116).
T2 construct: whole, on cells; also called 다른 종 유래의 Tie2 단백질
T2 sequence: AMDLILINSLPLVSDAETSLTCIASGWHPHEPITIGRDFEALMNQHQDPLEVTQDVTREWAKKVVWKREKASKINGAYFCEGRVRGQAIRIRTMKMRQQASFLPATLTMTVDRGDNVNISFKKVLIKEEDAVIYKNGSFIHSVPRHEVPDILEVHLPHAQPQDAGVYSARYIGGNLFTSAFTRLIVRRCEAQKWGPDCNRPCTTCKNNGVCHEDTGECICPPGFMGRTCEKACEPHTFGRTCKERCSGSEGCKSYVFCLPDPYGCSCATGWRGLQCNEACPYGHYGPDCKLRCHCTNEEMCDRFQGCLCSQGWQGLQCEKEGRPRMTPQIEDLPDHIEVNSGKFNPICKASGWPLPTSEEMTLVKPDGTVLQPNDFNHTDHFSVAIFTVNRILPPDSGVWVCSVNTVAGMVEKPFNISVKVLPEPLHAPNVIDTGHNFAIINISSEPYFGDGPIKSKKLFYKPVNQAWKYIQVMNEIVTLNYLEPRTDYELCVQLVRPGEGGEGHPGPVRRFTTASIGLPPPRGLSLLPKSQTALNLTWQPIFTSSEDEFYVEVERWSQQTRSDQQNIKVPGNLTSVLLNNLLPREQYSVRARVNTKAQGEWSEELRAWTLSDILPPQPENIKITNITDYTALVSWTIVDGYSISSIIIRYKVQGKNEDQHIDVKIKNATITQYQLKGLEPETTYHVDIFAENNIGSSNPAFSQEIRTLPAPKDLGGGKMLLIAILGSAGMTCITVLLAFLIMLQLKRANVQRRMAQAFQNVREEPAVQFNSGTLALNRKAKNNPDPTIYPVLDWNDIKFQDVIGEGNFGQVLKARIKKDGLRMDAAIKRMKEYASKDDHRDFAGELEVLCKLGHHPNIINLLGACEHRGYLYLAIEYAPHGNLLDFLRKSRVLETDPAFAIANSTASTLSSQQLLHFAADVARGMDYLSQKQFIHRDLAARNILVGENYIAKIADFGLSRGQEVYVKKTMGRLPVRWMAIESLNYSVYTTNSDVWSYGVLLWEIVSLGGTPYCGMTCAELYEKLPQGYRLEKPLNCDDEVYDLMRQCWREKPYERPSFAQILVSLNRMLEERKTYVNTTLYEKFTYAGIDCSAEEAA
Briefly: flow cytometry; HEK293T cells transfected with rat Tie2.

Assay [3] deals with T3, 마우스 Tie2 단백질 (마우스 (mouse), UniProt Q02858 23-1122).
T3 construct: whole, on cells; also called 다른 종 유래의 Tie2 단백질
T3 sequence (looked up): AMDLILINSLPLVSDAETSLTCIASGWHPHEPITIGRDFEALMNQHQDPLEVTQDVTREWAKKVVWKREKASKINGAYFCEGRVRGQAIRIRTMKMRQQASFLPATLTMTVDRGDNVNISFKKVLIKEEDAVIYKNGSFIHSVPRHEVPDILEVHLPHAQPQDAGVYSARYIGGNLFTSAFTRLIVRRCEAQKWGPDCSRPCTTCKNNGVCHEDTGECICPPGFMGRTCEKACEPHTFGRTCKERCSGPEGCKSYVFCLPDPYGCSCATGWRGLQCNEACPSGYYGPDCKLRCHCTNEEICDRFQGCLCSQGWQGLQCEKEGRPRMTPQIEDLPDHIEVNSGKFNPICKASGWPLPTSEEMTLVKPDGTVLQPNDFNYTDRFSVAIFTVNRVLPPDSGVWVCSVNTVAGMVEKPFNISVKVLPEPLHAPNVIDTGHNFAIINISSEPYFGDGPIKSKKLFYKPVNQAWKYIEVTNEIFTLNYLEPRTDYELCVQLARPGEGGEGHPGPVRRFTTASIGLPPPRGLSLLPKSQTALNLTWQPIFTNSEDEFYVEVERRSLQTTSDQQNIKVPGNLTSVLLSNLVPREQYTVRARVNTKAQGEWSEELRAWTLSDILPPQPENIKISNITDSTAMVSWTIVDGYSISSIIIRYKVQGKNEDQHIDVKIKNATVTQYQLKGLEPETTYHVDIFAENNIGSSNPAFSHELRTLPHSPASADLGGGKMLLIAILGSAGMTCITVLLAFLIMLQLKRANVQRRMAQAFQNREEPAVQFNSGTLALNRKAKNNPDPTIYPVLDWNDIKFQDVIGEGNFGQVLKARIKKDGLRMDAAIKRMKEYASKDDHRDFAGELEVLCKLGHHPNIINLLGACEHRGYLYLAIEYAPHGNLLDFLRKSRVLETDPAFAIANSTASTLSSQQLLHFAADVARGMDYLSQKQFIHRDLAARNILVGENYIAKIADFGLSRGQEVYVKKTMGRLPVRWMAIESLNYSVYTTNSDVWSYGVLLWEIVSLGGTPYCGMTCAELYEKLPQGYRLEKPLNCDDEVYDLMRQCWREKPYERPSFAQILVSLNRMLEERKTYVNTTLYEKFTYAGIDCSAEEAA
Briefly: flow cytometry; HEK293T cells transfected with mouse Tie2.

The target of assay [4] is T4, 인간 Tie2-Fc 재조합 단백질 (인간 (human), UniProt Q02763 23-748, limits assumed).
T4 construct: Human Tie2-Fc recombinant protein, coated in ELISA and immobilised in BLI; also called 인간 Tie2-Fc 단백질; 항원; not shown: Fc part
Briefly: BLI (Octet K2); human Tie2-Fc immobilised on AR2G tip; antibody 30-1.63 nM; global fit. In general terms: BLI is a label-free optical method that tracks binding on a fibre tip over time.

B1: Ang1mab4(L1V03A) (antibody, human IgG4 S228P, kappa)
heavy: QVQLVQSGGGVVQPGRSLRLSCAASGLTFSNYAMHWVRQAPGKGLEWVAVISYDGENKYYADSVKGRFTISRDNSKNMLQLQMNRLRSEDTAVYYCATPKGGALEIWGQGTVITVSSASTKGPSVFPLAPCSRSTSESTAALGCLVKDYFPEPVTVSWNSGALTSGVHTFPAVLQSSGLYSLSSVVTVPSSSLGTKTYTCNVDHKPSNTKVDKRV[sequence of human IgG4 Fc with S228P (EU numbers) omitted]
light: DIQMTQSPDSLAVSLGERATINCKSSQSALYSSNNKNYLAWYQQKPGQPPNLLMYWASTRESGVPDRFSGSGSGTDFTLTISSLQAEDVAVYYCQQYYSAPITFGQGTRLEIKRTVAAPSVFIFPPSDEQLKSGTASVVCLLNNFYPREAKVQWKVDNALQSGNSQESVTEQDSKDSTYSLSSTLTLSKADYEKHKVYACEVTHQGLSSPVTKSFNRGEC
notes: also called 변이 항체
Broadly, the Kd is the constant that tells how readily two partners part at equilibrium. Read a high Kd as lower affinity. As usually defined, the koff is the rate constant with which the complex falls apart. As a reminder, the kon is the second-order rate constant of association. With B1, in assay [1], the binding result is “no binding (tested: 5-g/ml (so in the source))”. Besides, the binding result in assay [2] was “no binding (tested: 5-g/ml (so in the source))”. Also, the binding result in assay [3] is “no binding (tested: 5-g/ml (so in the source))”. Besides, in assay [4], the affinity, expressed as Kd, was 0.538 nM; the koff is 4.72e-05 s⁻¹; the kon was 87700 M⁻¹ s⁻¹.

B2: Ang1mab1 (antibody, human IgG1, kappa)
heavy: QVQLVQSGGGVVQPGRSLRLSCAASGLTFSNYAMHWVRQAPGKGLEWVAVISYDGENKYYADSVKGRFTISRDNSKNMLQLQMNRLRSEDTAVYYCATPKGGALEIWGQGTVITVSS[sequence of human IgG1 constant region omitted]
light: DIQMTQSPDSLAVSLGERATINCKSSQSVLYSSNNKNYLAWYQQKPGQPPNLLMYWASTRESGVPDRFSGSGSGTDFTLTISSLQAEDVAVYYCQQYYSAPITFGQGTRLEIKRTVAAPSVFIFPPSDEQLKSGTASVVCLLNNFYPREAKVQWKVDNALQSGNSQESVTEQDSKDSTYSLSSTLTLSKADYEKHKVYACEVTHQGLSSPVTKSFNRGEC
notes: Its matched control is called IgG1 control; also called 제1 기본 항체; 기본 항체(Ang1mab1)
Take B2: the binding result in assay [1], in assay [2] and in assay [3] was “no binding (tested: 5-g/ml (so in the source))” each time. Besides, the affinity in assay [4], expressed as Kd, was 0.476 nM. For the same molecule, the off-rate constant (koff) in assay [4] was 4.62e-05 s⁻¹.

B3: Ang1mab4(L1Y05F) (antibody, human IgG4 S228P, kappa)
heavy: QVQLVQSGGGVVQPGRSLRLSCAASGLTFSNYAMHWVRQAPGKGLEWVAVISYDGENKYYADSVKGRFTISRDNSKNMLQLQMNRLRSEDTAVYYCATPKGGALEIWGQGTVITVSSASTKGPSVFPLAPCSRSTSESTAALGCLVKDYFPEPVTVSWNSGALTSGVHTFPAVLQSSGLYSLSSVVTVPSSSLGTKTYTCNVDHKPSNTKVDKRV[sequence of human IgG4 Fc with S228P (EU numbers) omitted]
light: DIQMTQSPDSLAVSLGERATINCKSSQSVLFSSNNKNYLAWYQQKPGQPPNLLMYWASTRESGVPDRFSGSGSGTDFTLTISSLQAEDVAVYYCQQYYSAPITFGQGTRLEIKRTVAAPSVFIFPPSDEQLKSGTASVVCLLNNFYPREAKVQWKVDNALQSGNSQESVTEQDSKDSTYSLSSTLTLSKADYEKHKVYACEVTHQGLSSPVTKSFNRGEC
notes: also called 변이 항체
On to B3, for which the binding result in assay [1] was “no binding (tested: 5-g/ml (so in the source))”. The binding result in assay [2] is listed as “no binding (tested: 5-g/ml (so in the source))”. The binding result in assay [3] is reported as “no binding (tested: 5-g/ml (so in the source))”. In assay [4], this molecule showed a Kd of 0.474 nM, an off-rate (koff) of 4.8e-05 s⁻¹ and an on-rate constant (kon) of 101000 M⁻¹ s⁻¹.
